# Test results published in PubChem BioAssay (NCATS).
# Values joined by “and” are separate entries in the source; they are usually repeats but may differ in a detail not shown here. Equal values may be shown once. The shares of active, inactive and inconclusive entries below differ from those in the screen. For some of these results: A potency beside an inconclusive call is a rough fit, not a confirmed value. Active and inactive are the calls of the source. The call rests on the fitted dose curve; in most records, active means well fitted curve in the direction sought with a large enough effect; inconclusive means small, poorly fitted or top-dose-only effect, or another doubt; inactive means no such curve, though single readings can be large; an effect the other way counts as inactive or inconclusive.
# Columns and labels:
# [1] = qHTS of pediatric cancer cell lines to identify multiple opportunities for drug repurposing: Primary screen for NB-EBc1 cells (AID 1347095); conditions: NB-EBc1 neuroblastoma viability, CellTiter-Glo luminescence, 48 h; series mostly up to 46 µM; further: potency means the concentration at half of the fitted maximal effect
# Method in brief: (§1)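 Readout: CellTiter-Glo luminescence, 48 h treatment. Controls DMSO (neutral) and bortezomib 2.3 µM final (positive). Potency and efficacy taken from primary-screen concentration-response curves.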
# [2] = qHTS of pediatric cancer cell lines to identify multiple opportunities for drug repurposing: Primary screen for U-2 OS cells (AID 1347096); conditions: U-2 OS viability, CellTiter-Glo luminescence, 48 h; series mostly up to 46 µM; further: nearly all actives have a fitted effect of over 50% in size
# Method in brief: (§2)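 Viability after 48 h compound treatment at 37C, 500-1,000 cells/well, read as ATP luminescence with CellTiter-Glo. Primary screens used 11-point (MIPE, 0.78 nM-46 µM) or 8-point (NPC, 0.59 nM-46 µM) final concentrations; follow-up screens used 11-point dilutions.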
# [3] = qHTS of pediatric cancer cell lines to identify multiple opportunities for drug repurposing: Primary screen for BT-12 cells (AID 1347101); conditions: BT-12 viability, CellTiter-Glo luminescence, 48 h; series mostly up to 57.3 µM; further: nearly all actives have a fitted effect of over 25% in size; further: potency means the concentration at half of the fitted maximal effect
# Method in brief: (§3)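 Cells (500-1,000/well) rested 5 h, then received compounds for 48 h; metabolically active cells were measured by CellTiter-Glo luminescence. Final concentrations spanned up to 46 µM (MIPE, 11-point) or 0.59 nM-46 µM (NPC, 8-point) in primary screens, 11-point in follow-ups.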
# [4] = qHTS of pediatric cancer cell lines to identify multiple opportunities for drug repurposing: Primary screen for Rh18 cells (AID 1347102); conditions: Rh18 rhabdomyosarcoma viability, CellTiter-Glo luminescence, 48 h; series mostly up to 46 µM; further: nearly all actives have a fitted effect of over 65% in size; further: potency means the concentration at half of the fitted maximal effect
# Method in brief: as §2
# [5] = qHTS of pediatric cancer cell lines to identify multiple opportunities for drug repurposing: Primary screen for OHS-50 cells (AID 1347103); conditions: OHS-50 osteosarcoma viability, CellTiter-Glo luminescence, 48 h; series mostly up to 57.3 µM; further: nearly all actives have a fitted effect of over 40% in size; further: potency means the concentration at half of the fitted maximal effect
# Method in brief: as §3
# [6] = qHTS of pediatric cancer cell lines to identify multiple opportunities for drug repurposing: Primary screen for SK-N-SH cells (AID 1347098); conditions: SK-N-SH viability, CellTiter-Glo luminescence, 48 h; activity change, negative = cytotoxic: at 57 µM (top of the series); further: nearly all actives have a fitted effect of over 65% in size; further: potency means the concentration at half of the fitted maximal effect
# Method in brief: as §3
# [7] = qHTS of pediatric cancer cell lines to identify multiple opportunities for drug repurposing: Primary screen for Saos-2 cells (AID 1347097); conditions: Saos-2 viability, CellTiter-Glo ATP luminescence, 48 h; activity change, negative = cytotoxic: at 46 µM (top of the series); further: nearly all actives have a fitted effect of over 40% in size; further: potency means the concentration at half of the fitted maximal effect
# Method in brief: as §1
# [8] = qHTS of pediatric cancer cell lines to identify multiple opportunities for drug repurposing: Primary screen for NB1643 cells (AID 1347099); conditions: NB1643 neuroblastoma viability, CellTiter-Glo luminescence, 48 h; series mostly up to 46 µM; further: nearly all actives have a fitted effect of over 50% in size; further: potency means the concentration at half of the fitted maximal effect
# Method in brief: as §1
# [9] = qHTS of pediatric cancer cell lines to identify multiple opportunities for drug repurposing: Primary screen for RD cells (AID 1347104); conditions: RD rhabdomyosarcoma viability, CellTiter-Glo luminescence, 48 h; series mostly up to 46 µM; further: nearly all actives have a fitted effect of over 55% in size; further: potency means the concentration at half of the fitted maximal effect
# Method in brief: as §1
# [10] = qHTS of pediatric cancer cell lines to identify multiple opportunities for drug repurposing: Primary screen for LAN-5 cells (AID 1347100); conditions: LAN-5 neuroblastoma viability, CellTiter-Glo luminescence, 48 h; activity change, negative = cytotoxic: at 46 µM (top of the series); further: potency means the concentration at half of the fitted maximal effect
# Method in brief: as §2
# Tags describe the fitted curve by direction and shape.
compound,measurement,setting,value
NC(=O)c1ccc(I)c([N+](=O)[O-])c1,Potency,[1],inactive
same,Potency,[2],inactive
same,Potency,[3],inactive
same,Potency,[4],inactive
same,Potency,[5],inactive
O=C(OCC#CCSc1nnc(-c2cccc3ccccc23)o1)c1cc2ccccc2s1,Potency,[1],"inconclusive: 20.9 µM [cytotoxic, partial curve]"
same,Potency,[6],"inconclusive: 21.5 µM [cytotoxic, partial curve, poor fit]"
Nc1ncnc2c1ncn2[C@@H]1O[C@H](CO)C[C@@H]1O,Potency,[1],"inconclusive: 14.8 µM [cytotoxic, partial curve]"
same,Potency,[7],inactive
same,Potency,[8],"inconclusive: 9.35 µM [cytotoxic, partial curve, poor fit]"
same,Potency,[9],inactive
COC(=O)C1=C(C)NC(C)=C(C(=O)OCCCN2CCC(c3ccccc3)(c3ccccc3)CC2)C1c1cccc([N+](=O)[O-])c1 (stereo not drawn),Potency,[1],"inconclusive: 23.7 µM [cytotoxic, single point]"
same,Potency,[6],"inconclusive: 38.3 µM [cytotoxic, partial curve, poor fit]"
same,Potency,[8],"inconclusive: 26.6 µM [cytotoxic, single point]"
same,Potency,[10],"inconclusive: 18.8 µM [cytotoxic, single point]"
same,Potency,[3],"inconclusive: 34.7 µM [cytotoxic, single point]"
same,Potency,[4],"inconclusive: 26.6 µM [cytotoxic, single point]"
same,Potency,[9],"inconclusive: 26.6 µM [cytotoxic, single point]"
CC1(C)[C@H](C(=O)O)N2C(=O)C[C@H]2S1(=O)=O,Potency,[1],inactive
same,Potency,[7],"inconclusive: 11.8 µM [cytotoxic, partial curve]"
same,Potency,[8],"inconclusive: 14.8 µM [cytotoxic, partial curve]"
Cc1c[nH]c(C=C2C(=O)Nc3ccccc32)c1CCC(=O)O,Potency,[1],"inconclusive: 14.8 µM [cytotoxic, partial curve]"
same,Potency,[7],"inconclusive: 4.18 µM [cytotoxic, partial curve]"
same,Potency,[6],active: 24.1 µM
same,Potency,[4],"inconclusive: 14.8 µM [cytotoxic, partial curve]"
same,Potency,[5],"inconclusive: 24.3 µM [cytotoxic, partial curve]"
CCN(CC)CCOc1ccc(C(=C(Cl)c2ccccc2)c2ccccc2)cc1,Potency,[1],inactive
same,Potency,[7],"inconclusive: 6.62 µM [cytotoxic, partial curve, poor fit]"
same,Potency,[8],"inconclusive: 29.6 µM [cytotoxic, single point]"
same,Potency,[10],"inconclusive: 37.2 µM [cytotoxic, single point]"
same,Potency,[5],"inconclusive: 27.3 µM [cytotoxic, partial curve, poor fit]"
same,Potency,[9],"inconclusive: 18.7 µM [cytotoxic, single point]"
CC1CCC(C(=O)N(c2cc(C#CC(C)(C)C)sc2C(=O)O)C2CCC(O)CC2)CC1 (stereo not drawn),Potency,[1],"inconclusive: 26.4 µM [cytotoxic, single point]"
same,Potency,[7],"inconclusive: 0.0187 µM [cytotoxic, full curve, poor fit]"
same,Potency,[5],"inconclusive: 43.2 µM [cytotoxic, single point]"
same,Potency,[9],"inconclusive: 18.7 µM [cytotoxic, single point]"
C[C@]12CC[C@H](O)CC1=CC[C@@H]1[C@H]2CC[C@]2(C)C(c3cccnc3)=CC[C@H]12,Potency,[1],"inconclusive: 14.4 µM [cytotoxic, single point]"
same,Potency,[7],"inconclusive: 12.9 µM [cytotoxic, partial curve, poor fit]"
same,Potency,[8],inactive
same,Potency,[3],inactive
COc1cccc([C@@H](C)NCCCc2ccccc2Cl)c1,Potency,[1],"inconclusive: 20.9 µM [cytotoxic, single point]"
same,Potency,[6],"inconclusive: 38.3 µM [cytotoxic, single point]"
same,Potency,[10],inactive
same,Potency,[3],"inconclusive: 24.3 µM [cytotoxic, single point]"
same,Potency,[5],inactive
CON(C)C(=O)N1N=C(c2cc(F)ccc2F)S[C@]1(CCCN)c1ccccc1,Potency,[1],active: 0.001 µM
same,Potency,[6],"inconclusive: 38.3 µM [cytotoxic, single point]"
same,Potency,[8],inactive
same,Potency,[10],"inconclusive: 0.001 µM [cytotoxic, full curve]"
same,Potency,[3],active: 15.3 µM
CC1(C)O[C@@H]2C[C@H]3[C@@H]4CCC5=CC(=O)C=C[C@]5(C)[C@@H]4[C@@H](O)C[C@]3(C)[C@]2(C(=O)CO)O1,Potency,[1],"inconclusive: 29.6 µM [cytotoxic, single point]"
same,Potency,[7],"inconclusive: 18.7 µM [cytotoxic, partial curve]"
same,Potency,[8],"inconclusive: 20.9 µM [cytotoxic, partial curve]"
same,Potency,[9],"inconclusive: 11.8 µM [cytotoxic, partial curve, poor fit]"
Cc1ccc(C2=Nc3ccc(Cl)cc3OC2)cc1,Potency,[1],"inconclusive: 18.7 µM [cytotoxic, partial curve]"
same,Potency,[7],"inconclusive: 11.8 µM [cytotoxic, partial curve]"
same,Potency,[8],"inconclusive: 10.5 µM [cytotoxic, partial curve]"
same,Potency,[10],"inconclusive: 2.64 µM [cytotoxic, full curve]"
same,Potency,[3],"inconclusive: 19.3 µM [cytotoxic, partial curve]"
same,Potency,[4],inactive
Cc1ccc(O)c(C(CCN(C(C)C)C(C)C)c2ccccc2)c1 (stereo not drawn),Potency,[1],inactive
same,Potency,[6],inactive
CC(C)(C)C(=O)Oc1ccc2c(c1)nc(NC(=O)c1cccc([N+](=O)[O-])c1)n2CCCO,Potency,[1],"inconclusive: 37.2 µM [cytotoxic, single point]"
same,Potency,[6],"inconclusive: 38.3 µM [cytotoxic, single point]"
same,Potency,[8],"inconclusive: 1.66 µM [cytotoxic, partial curve, poor fit]"
same,Potency,[10],"inconclusive: 7.43 µM [cytotoxic, single point]"
same,Potency,[9],inactive
CN1CCC(=C2c3ccccc3C=Cc3ccccc32)CC1,Potency,[1],"inconclusive: 11.8 µM [cytotoxic, partial curve]"
same,Potency,[7],"inconclusive: 21.1 µM [cytotoxic, partial curve] and inconclusive: 14.8 µM [cytotoxic, partial curve]"
same,Potency,[3],"inconclusive: 24.6 µM [cytotoxic, single point] and inconclusive: 43.2 µM [cytotoxic, single point]"
same,Potency,[9],"inconclusive: 23.7 µM [cytotoxic, single point] and inconclusive: 41.8 µM [cytotoxic, single point]"
CCCCCCCCCCCC(CC1OC(=O)C1CCCCCC)OC(=O)C(CC(C)C)NC=O (stereo not drawn),Potency,[1],active: 18.7 µM
same,Potency,[6],"inconclusive: 42.9 µM [cytotoxic, single point]"
same,Potency,[8],"inconclusive: 23.5 µM [cytotoxic, single point]"
same,Potency,[10],inactive
same,Potency,[5],"inconclusive: 15.3 µM [cytotoxic, partial curve]"
Cc1cn([C@H]2C=C[C@@H](CO)O2)c(=O)[nH]c1=O,Potency,[1],inactive
same,Potency,[6],inactive
c1ccc2c(-c3cnn4cc(-c5ccc(N6CCNCC6)cc5)cnc34)ccnc2c1,Potency,[1],"inconclusive: 29.6 µM [cytotoxic, partial curve, poor fit]"
same,Potency,[7],"inconclusive: 11.8 µM [cytotoxic, partial curve, poor fit]"
same,Potency,[8],"inconclusive: 18.7 µM [cytotoxic, partial curve, poor fit]"
same,Potency,[10],"inconclusive: 5.9 µM [cytotoxic, full curve, poor fit]"
same,Potency,[4],"inconclusive: 2.64 µM [cytotoxic, full curve, poor fit]"
same,Potency,[5],"inconclusive: 2.43 µM [cytotoxic, full curve, poor fit]"
C[C@]12CC[C@@H]3c4ccc(O)cc4CC[C@H]3[C@H]1C[C@@H](O)[C@H]2O,Potency,[1],"inconclusive: 18.7 µM [cytotoxic, partial curve]"
same,Potency,[6],"inconclusive: 34.1 µM [cytotoxic, single point]"
same,Potency,[8],"inconclusive: 8.33 µM [cytotoxic, single point]"
same,Potency,[3],"inconclusive: 24.3 µM [cytotoxic, partial curve, poor fit]"
same,Potency,[9],inactive
Cc1cccc(C)c1OCC(=O)N[C@@H](Cc1ccccc1)[C@@H](O)C[C@H](Cc1ccccc1)NC(=O)[C@H](C(C)C)N1CCCNC1=O,Potency,[1],"inconclusive: 33.2 µM [cytotoxic, single point] and inconclusive: 26.6 µM [cytotoxic, single point]"
same,Potency,[7],"inconclusive: 33.2 µM [cytotoxic, single point] and inconclusive: 26.6 µM [cytotoxic, single point]"
same,Potency,[8],"active: 20.9 µM and inconclusive: 16.8 µM [cytotoxic, partial curve, poor fit]"
same,Potency,[10],"inconclusive: 26.4 µM [cytotoxic, single point] and inconclusive: 21.1 µM [cytotoxic, single point]"
same,Potency,[3],"inconclusive: 27.3 µM [cytotoxic, single point] and inconclusive: 21.9 µM [cytotoxic, partial curve, poor fit]"
same,Potency,[4],"inconclusive: 23.5 µM [cytotoxic, single point]"
same,Potency,[5],"active: 27.3 µM and inconclusive: 24.6 µM [cytotoxic, single point]"
same,Potency,[9],"inconclusive: 29.6 µM [cytotoxic, partial curve] and inconclusive: 21.1 µM [cytotoxic, single point]"
C[N+]1(C)[C@@H]2CC(OC(=O)[C@H](CO)c3ccccc3)C[C@H]1[C@H]1O[C@@H]12 (stereo partly drawn),Potency,[1],inactive
same,Potency,[6],inactive
same,Potency,[8],"inconclusive: 37.2 µM [cytotoxic, single point]"
same,Potency,[3],inactive
same,Potency,[5],inactive
same,Potency,[9],inactive
